Measured values taken from publication PMC12136788.
The other results are listed elsewhere or left out.

T1: UNK ZnF1-3 (human, UniProt Q9C0B0 31-174)
T1 sequence: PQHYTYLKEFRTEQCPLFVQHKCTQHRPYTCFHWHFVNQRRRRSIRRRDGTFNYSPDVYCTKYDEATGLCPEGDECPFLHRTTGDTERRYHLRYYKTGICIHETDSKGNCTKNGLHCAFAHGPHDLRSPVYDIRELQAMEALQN

B1: chr6:40197388:40197389:+_ENSMUSG00000057716_ENSMUST00000061740|mus_mus|mus_mus_mus_hu_False|38_38 (ssRNA)
RNA: GGGAGUUCUACAGUCCGACGAUCGAGACACUGGGGUGGAUUUAUUCCACCUCUGUUUGGGUGCUAGCCACUAAGACUGUUAUUUUGGGAUUCAUGGCCUUGAAGAUCAAGAGGGAAAGGAAGAGGAUGGAAAGAGUCAAGAGUCAACAGAGGAUUGAGCAUCA
B2: chr7:93623566:93623567:-_ENSG00000105829_ENST00000222547|hu_mus|FALSE|FALSE (ssRNA)
RNA: GGGAGUUCUACAGUCCGACGAUCCAACAAAUUCAAAGCCCACACUAACUUCCAUCACCUCAGUUUAAUAAUCCAAUAAAUGACAAAAAAGACAAACAAUGAAAACAGCAUCAUAUAGCAUAGCAAUUUUGUUUGGCUCCCUCUCAACAGAGGAUUGAGCAUCA
B3: chr11:87793471:87793472:-_ENSMUSG00000020483_ENSMUST00000020775|mus_mus|mus_mus_mus_hu_False|58_88 (ssRNA)
RNA: GGGAGUUCUACAGUCCGACGAUCUGGACUUGAAAAUAAAAGAAUAAGCUAGAUUUCCCACCCCCCCACAUUGUCAACCCUAUGCGAGAGUUUUGAAGGCGACUCAUGAAAAUCAGCAGCUCAAACGGCAAUGACCACCCCACCCAACAGAGGAUUGAGCAUCA
B4: chr5:128441001:128441002:+_ENSG00000066583_ENST00000173527|hu_mus|motif|central (ssRNA)
RNA: GGGAGUUCUACAGUCCGACGAUCACACACGUGCGUUUCUACUCCAAACAACACGACACUCCGGACGCCAGGAAUCUCGGCGGACGCUGCUUCGACUUCAGGUAACACCAUAGAAAACUUGGUCUUUGGAAGAACCAGUUUCACCAACAGAGGAUUGAGCAUCA
B5: chr4:11888808:11888809:-_ENSMUSG00000049225_ENSMUST00000108301|mus_hu|motif|central (ssRNA)
RNA: GGGAGUUCUACAGUCCGACGAUCGUGCUUGUGCCACUGGAGAAUGGGUAGCAGUGCCCGGCCGCUCUCCACUGCAUUUUCAAUCUCGGGCAAAGUCUCAUGGGGUAACAAAGAGACAGCAAUAUAAUAAAAGAGUCUUUCACUCAACAGAGGAUUGAGCAUCA
B6: chr1:66463027:66463028:+_ENSMUSG00000015222_ENSMUST00000114013|mus_mus|motif|central (ssRNA)
RNA: GGGAGUUCUACAGUCCGACGAUCUUUUCUUUCAGGAGUGGAAAUUCUGCCUCUCCCGGUUUUAAAAGGCUUUUCUUUUCGGUGUUUCUCGAGAGACGGUCUCCGAGCAUCCUUCUCAGCUCUCUCCUCUUUAGGAAUAGUUUCCAACAGAGGAUUGAGCAUCA
B7: 79399197_79401693_468_CDS_ENSMUSG00000027804_ENSMUST00000029382|mouse|control|control (ssRNA)
RNA: GGGAGUUCUACAGUCCGACGAUCAGGAGUCGGAACUGUUGUGAUAAAGAACUGAGAGCCAUUCGUAUUGGGGCCUGCAUUUGCCAUGCUCAGCAAACCCUCCCGAUCAUGCUUAUAAUGAAAAUUUUCAUCUUCAAAUUUUUCCAACAGAGGAUUGAGCAUCA
B8: chr17:60770872:60770873:+_ENSG00000011028_ENST00000303375|hu_hu|hu_hu_hu_mus_True|18_98 (ssRNA)
RNA: GGGAGUUCUACAGUCCGACGAUCUCUUUAAAAAAAAUUCCUUUUUUACAAACAAUAAUAGCACAUUUCGAGAAUCAAGAACUACAAUAGAGGGUCCGCUUUGAGUUUUUGUUCACAACAUUGUCCCCUGGGACACGGGGACUGCAACAGAGGAUUGAGCAUCA
B9: 176015879_176032890_104_3pUTR_ENSG00000115966_ENST00000264110|human|control|control (ssRNA)
RNA: GGGAGUUCUACAGUCCGACGAUCUAGUACCCUUUCCAGGUCACUAGUUCAUGAUCCUUUCGGUCACCCGCGAGCCCUGAGCACAGCCGUGUUUACAAAGCACCCCUGGAGGAAAAGGCUGAACGGCACUUUAAAGGCCACGGGCAACAGAGGAUUGAGCAUCA
B10: chr13:31711309:31711310:-_ENSG00000120694_ENST00000320027|hu_mus|FALSE|FALSE (ssRNA)
RNA: GGGAGUUCUACAGUCCGACGAUCAGAGACUACACAGAUUCAAGCUUUUCCUUUUUUCCCCUCAUAAUACACAAAAUUUCUAGACAGUCUUAAAAAAAAGAAAAUAUAAAUAGACUCAGUCUGUUAUACAGGAUCACAUACUAUCAACAGAGGAUUGAGCAUCA
B11: chr13:91842754:91842755:+_ENSMUSG00000003992_ENSMUST00000004094|mus_mus|FALSE|FALSE (ssRNA)
RNA: GGGAGUUCUACAGUCCGACGAUCCCCAAAAUAUGUGAGUACUGCUGAUUUCAUUAUUAUGGGCUGAAGUAUGCAGAAAGCUAACCUCUGGCAAGCAGCAUAUACAUCAAGAGGACAUGAAUGGGCCAACAGCCGUAGAAUGCACAACAGAGGAUUGAGCAUCA
B12: chrX:140365796:140365797:-_ENSMUSG00000031285_ENSMUST00000033642|mus_mus|mus_mus_mus_hu_False|38_98 (ssRNA)
RNA: GGGAGUUCUACAGUCCGACGAUCCUUCUCAUUACUCAAUGCCUGCAAGGUUCUGGUUCGGUAGAAGCUACAGUGGGCGCUGUGAGUGGGGCUAGGCAGUCCAUUCAUCCGGGAGCCUCGCAUGUUCCUGGAUGUCUUAUCUCUCAACAGAGGAUUGAGCAUCA
B13: chr7:149068622:149068623:-_ENSMUSG00000025139_ENSMUST00000001950|mus_hu|mus_mus_mus_hu_False|18_18 (ssRNA)
RNA: GGGAGUUCUACAGUCCGACGAUCGUGAGGCCUCUGAGUGUGGCUUGUGGUCUGUCCUGGGUUAGAGUUGUUAAUAUCACGGAACAUACCAUCUAGAACGUUCCAGUCCCGCCUGACCAUCCACCCUCCAAUGGAGAAGAAAUCCAACAGAGGAUUGAGCAUCA
B14: chr4:140556289:140556290:+_ENSMUSG00000036622_ENSMUST00000037055|mus_mus|mus_mus_mus_hu_False|18_18 (ssRNA)
RNA: GGGAGUUCUACAGUCCGACGAUCGAUGGAGCUCACCAGGCCCCCUUUUGCCGUGCAGAACCCUGUGCGGGUCACCACUGCCAGGACGUGCGGUCCCACAUAGGCCCGGGCCUGCAAAAUGAGGGUGCCGCAGAAGAGUGUGUGCAACAGAGGAUUGAGCAUCA

Target: T1, UNK ZnF1-3
Experiment: nsRBNS (natural sequence RNA bind-n-seq); RBNS binding buffer (assumed for nsRBNS): 25 mM Tris pH 7.5, 150 mM KCl, 3 mM MgCl2, 0.01% Triton X-100, 500 ug/ml BSA, 20 U/ml SUPERase-In, 4 C; UNK is unkempt and MSI1 is Musashi-1; names of the RNAs are library labels; protein concentration not given here; high values mean tight binding

| Binder | binding signal [enrichment R] |
| --- | --- |
| B1 | 1.44 |
| B2 | 2.36 |
| B3 | 2.02 |
| B4 | 1.26 |
| B5 | 1.5 |
| B6 | 0.405 |
| B7 | 0.639 |
| B8 | 1.5 |
| B9 | 0.514 |
| B10 | 1.95 |
| B11 | 1.35 |
| B12 | 0.692 |
| B13 | 0.97 |
| B14 | 1.43 |
